This is an account of results in patent US10111437B2, “Substituted guanidines as fungicides” (Nippon Soda Co., Ltd., priority 2015, dated 2018).

The structures appear in SMILES notation.

For this test, the system named is wheat powdery mildew fungus (Blumeria graminis f. sp. tritici). Description: Wheat powdery mildew control test (foliar spray on wheat seedlings). The settings on record: in Triticum aestivum, 168 h, read-out: control value.
As for `N=C(N)NCCCCCCCn1ccn(CCCCOc2ccc(C(=N)N)cc2)c1=N` [compound 52, 4-[4-[3-(7-guanidinoheptyl)-2-imino-imidazol-1-yl]butoxy]benzamidine], the pest or weed control at 125 ppm was ≥ 75%.

`Cc1cn(CCCOc2ccc(C(=N)N)cc2)c(=N)n1CCCOc1ccc(C(=N)N)cc1` [compound 114]: the pest or weed control at 125 ppm is ≥ 75%.

As for `N=C(N)NCCCCCCCCNC(=N)NCCOc1ccc(C2=NCCCN2)nc1` [compound 288], the pest or weed control at 125 ppm was ≥ 75%.

`N=C(N)NCCCCCCCNC(=N)NCCCCCOc1ccc(C(=N)N)cc1` [compound 186]: the pest or weed control at 125 ppm is ≥ 75%.

As to `Cc1cn(CCCCOc2ccc(C(=N)N)cc2)c(=N)n1CCCCOc1ccc(C(=N)N)cc1` [compound 107], the pest or weed control at 125 ppm was ≥ 75%.

Turning to `N=C(N)NCCCCCCCNC(=N)NCCCOc1ccc(C(=N)N)nn1` [compound 44, 6-(3-(3-(7-guanidinoheptyl)guanidino)propoxy) pyridazine-3-carboxamidine], the pest or weed control at 125 ppm is ≥ 75%.

As for `N=C(N)NCCCCCCCCNC(=N)NCCCc1cc2cc(C3=NCCCN3)ccc2o1` [compound 260], the pest or weed control at 125 ppm is ≥ 75%.

In the case of `N=C(N)NCCCCCCCCNC(=N)NCCC=Cc1ccc(C(=N)N)cc1` [compound 157], the pest or weed control at 125 ppm was ≥ 75%.

`CN(CCCOc1ccc(C(=N)N)cc1)C(=N)NCCCOc1ccc(C(=N)N)cc1` [compound 72]: the pest or weed control at 125 ppm was ≥ 75%.

For `N=C(N)NCCCCCCCCNC(=N)NCCOCc1ccc(C(=N)N)cc1` [compound 200], the pest or weed control at 125 ppm is ≥ 75%.

Take `N=C(N)NCCCCCCCCNC(=N)NCCOc1ccc(C2=NCC(N)CN2)cc1` (centres unmarked) [compound 285]: the pest or weed control at 125 ppm was ≥ 75%.

In the case of `N=C(N)NCCCCCCCNC(=N)NCCCc1cc2cc(C(=N)N)ccc2o1` [compound 34, 2-(3-(3-(7-guanidinoheptyl)guanidino)propyl)benzofuran-5-carboximidamide], the pest or weed control at 125 ppm was ≥ 75%.

Take `N=C(N)c1ccc(OCCCCn2ccn(CCCCOc3ccc(C4=NCCCN4)cc3)c2=N)cc1` [compound 214]: the pest or weed control at 125 ppm is ≥ 75%.

`Cc1c(C)n(CCCOc2ccc(C(=N)N)cc2)c(=N)n1CCCOc1ccc(C(=N)N)cc1` [compound 109]: the pest or weed control at 125 ppm is ≥ 75%.

With `N=C(N)NCCCCCCCCCn1ccn(CCCCOc2ccc(C3=NCCCN3)cc2)c1=N` [compound 212], the pest or weed control at 125 ppm is ≥ 75%.

Turning to `N=C(N)NCCCCCCCCNC(=N)NCCc1ccc(C2=NCCCN2)cc1` [compound 266], the pest or weed control at 125 ppm was ≥ 75%.

As for `N=C(N)NCCCCCCCCNC(=N)NCCCOc1ccc(C(=N)N)cc1Cl` [compound 112], the pest or weed control at 125 ppm is ≥ 75%.

Consider `N=C(N)NCCCCCCCCNC(=N)NCCCCOc1ccc(C2=NCCCCN2)cc1` [compound 254], for which the pest or weed control at 125 ppm is ≥ 75%.

For `N=C(N)NCCCCCCCNC(=N)NCCOc1ccc(C(=N)N)cc1` [compound 236], the pest or weed control at 125 ppm is ≥ 75%.

As for `N=C(N)c1ccc(OCCCCn2ccn(CCCCOc3ccc(C(=N)N)cc3)c2=N)cc1` [compound 36, 4-[4-[3-[4-(4-carbamimidoylphenoxy)butyl]-2-imino-imidazol-1-yl]butoxy]benzamidine], the pest or weed control at 125 ppm is ≥ 75%.

On to `N=C(N)c1ccc(OCCCn2ccn(CCCOc3ccc(C(=N)N)cc3)c2=N)cc1` [compound 89], for which the pest or weed control at 125 ppm was ≥ 75%.

Regarding `N=C(N)c1ccc(COCCCn2ccn(CCCOc3ccc(C(=N)N)cc3)c2=N)cc1` [compound 159], the pest or weed control at 125 ppm was ≥ 75%.

`N=C(N)NCCCCCCCNC(=N)NCCCCOc1ccc(C2=NCC(N)CN2)cc1` (centres unmarked) [compound 277]: the pest or weed control at 125 ppm is ≥ 75%.

Regarding `N=C(N)NCCCCCCCCNC(=N)NCCCCOc1ccc(C2=NCCCN2)cc1` [compound 204], the pest or weed control at 125 ppm is ≥ 75%.

With `N=C(N)NCCCCCCCNC(=N)NCCCSc1ccc(C(=N)N)cc1` [compound 177], the pest or weed control at 125 ppm is ≥ 75%.

Consider `N=C(N)NCCCCCCCCCNC(=N)NCCCOc1ccc(C2=NCCCN2)cc1` [compound 218], for which the pest or weed control at 125 ppm is ≥ 75%.

As to `N=C(N)NCCCCCCCCNC(=N)N1CCC(Oc2ccc(C3=NCCCN3)cc2)CC1` [compound 264], the pest or weed control at 125 ppm was ≥ 75%.

Regarding `N=C(N)c1ccc(OCCCn2ccn(CCCc3cc4cc(C(=N)N)ccc4o3)c2=N)cc1` [compound 126], the pest or weed control at 125 ppm is ≥ 75%.

Take `Cc1c(C)n(CCCCOc2ccc(C(=N)N)cc2)c(=N)n1CCCCOc1ccc(C(=N)N)cc1` [compound 105]: the pest or weed control at 125 ppm is ≥ 75%.

Consider `N=C(N)NCCCCCCCNC(=N)NCCCOCc1ccc(C2=NCCCN2)cc1` [compound 224], for which the pest or weed control at 125 ppm was ≥ 75%.

For `N=C(N)NCCCCCCCCNC(=N)NCC#Cc1ccc(C(=N)N)cc1` [compound 165], the pest or weed control at 125 ppm is ≥ 75%.

`N=C(N)NCCCCCCCCn1ccn(CCOc2ccc(C(=N)N)cc2)c1=N` [compound 281]: the pest or weed control at 125 ppm was ≥ 75%.

On to `N=C(N)NCCCCCCCCn1ccn(CCCCOc2ccc(C3=NCCCN3)cc2)c1=N` [compound 210], for which the pest or weed control at 125 ppm is ≥ 75%.

As for `N=C(N)NCCCCCCCCNC(=N)NCCCCCOc1ccc(C(=N)N)cc1` [compound 171], the pest or weed control at 125 ppm was ≥ 75%.

For the molecule `CN(C)/C(=N\CCCOc1ccc(C(=N)N)cc1)NCCCOc1ccc(C(=N)N)cc1` [compound 130], the pest or weed control at 125 ppm is ≥ 75%.

Regarding `N=C(N)NCCCCCCCn1ccn(CCCOc2ccc(C(=N)N)cc2)c1=N` [compound 25, 4-[3-[3-(7-guanidinoheptyl)-2-imino-imidazol-1-yl]propoxy]benzamidine], the pest or weed control at 125 ppm is ≥ 75%.

As to `N=C(N)c1ccc(OCCCCn2ccn(CCCCOc3ccc(C(=N)N)cn3)c2=NC(=O)C(F)(F)F)nc1` [compound 46, N-(1,3-bis(4-((5-carbamimidoylpyridin-2-yl)oxy)butyl)-1,3-dihydro-2H-imidazol-2-ylidene)-2,2,2-trifluoroacetamide], the pest or weed control at 125 ppm was ≥ 75%.

Regarding `N=C(N)NCCCCCCCCCNC(=N)NCCOc1ccc(C(=N)N)cc1` [compound 234], the pest or weed control at 125 ppm was ≥ 75%.

For `N=C(N)NCCCCCCCCNC(=N)NCCCc1ccc(C2=NCCCN2)cn1` [compound 273], the pest or weed control at 125 ppm was ≥ 75%.

As to `N=C(N)NCCCCCCCCNC(=N)NCCCOc1ccc(C(=N)N)cc1` [compound 230], the pest or weed control at 125 ppm is ≥ 75%.

For the molecule `N=C(N)NCCCCCCCNC(=N)NCCCCOc1ccc(C(=N)N)cn1` [compound 32, 6-(4-(3-(7-guanidinoheptyl)guanidino)butoxy)nicotinimidamide], the pest or weed control at 125 ppm was ≥ 75%.

In the case of `N=C(N)NCCCCCCCNC(=N)NCCCC#Cc1nc(C(=N)N)cs1` [compound 50, 2-[5-[[N-(7-guanidinoheptyl)carbamimidoyl]amino]pent-1-ynyl]thiazole-4-carboxamidine], the pest or weed control at 125 ppm is ≥ 75%.

Regarding `N=C(NCCCOCc1ccc(C(=N)N)cc1)NCCCOCc1ccc(C(=N)N)cc1` [compound 175], the pest or weed control at 125 ppm is ≥ 75%.

On to `N=C(N)c1ccc(OCCCn2cc(-c3ccccc3)n(CCCOc3ccc(C(=N)N)cc3)c2=N)cc1` [compound 149], for which the pest or weed control at 125 ppm was ≥ 75%.

On to `N=C(N)NCCCCCCCCNC(=N)NCCCCCOc1ccc(C2=NCCCN2)cc1` [compound 248], for which the pest or weed control at 125 ppm was ≥ 75%.

Consider `N=C(NCCCC#Cc1ccc(C(=N)N)cc1)NCCCC#Cc1ccc(C(=N)N)cc1` [compound 22, 4-[5-[[N-[5-(4-carbamimidoylphenyl)pent-4-ynyl]carbamimidoyl]amino]pent-1-ynyl]benzamidine], for which the pest or weed control at 125 ppm is ≥ 75%.

Regarding `N=C(N)NCCCCCCCCNC(=N)NCCCOCc1ccc(C2=NCCCN2)cn1` [compound 250], the pest or weed control at 125 ppm was ≥ 75%.

For `N=C(N)NCCCCCCCNC(=N)NCCOCc1ccc(C(=N)N)cc1` [compound 228], the pest or weed control at 125 ppm is ≥ 75%.

For the molecule `CN1CCCN=C1c1ccc(OCCNC(=N)NCCCCCCCCNC(=N)N)cc1` [compound 300], the pest or weed control at 125 ppm is ≥ 75%.

Turning to `CC1(C)CNC(c2ccc(OCCCCNC(=N)NCCCCCCCCNC(=N)N)cc2)=N1` [compound 256], the pest or weed control at 125 ppm was ≥ 75%.

On to `N=C(N)c1ccc(OCCCCCn2ccn(CCOc3ccc(C(=N)N)cc3)c2=N)cc1` [compound 93], for which the pest or weed control at 125 ppm is ≥ 75%.

As to `N=C(N)NCCCCCCCCNC(=N)NCCCCOc1ccc(C(=N)N)cn1` [compound 61, 6-[4-[[N-(8-guanidinooctyl)carbamimidoyl]amino]butoxy]pyridine-3-carboxamidine], the pest or weed control at 125 ppm is ≥ 75%.

For the molecule `N=C(N)NCCCCCCCCNC(=N)NCCCOCc1ccc(C(=N)N)cc1` [compound 145], the pest or weed control at 125 ppm is ≥ 75%.

In the case of `N=C(NCCCOc1ccc(C(=N)N)c(F)c1)NCCCOc1ccc(C(=N)N)c(F)c1` [compound 82], the pest or weed control at 125 ppm is ≥ 75%.

`N=C(N)NCCCCCCCCNC(=N)NCCCOCc1ccc(C2=NCCCN2)cc1` [compound 222]: the pest or weed control at 125 ppm was ≥ 75%.

On to `N=C(N)NCCCCCCCCNC(=N)NCCCc1ccc(C(=N)N)cc1` [compound 169], for which the pest or weed control at 125 ppm is ≥ 75%.

As for `N=C(NCC#Cc1ccc(C(=N)N)cc1)NCC#Cc1ccc(C(=N)N)cc1` [compound 155], the pest or weed control at 125 ppm was ≥ 75%.

Take `N=C(N)NCCCCCCCCNC(=N)NCCOCc1ccc(C2=NCCCN2)cc1` [compound 220]: the pest or weed control at 125 ppm was ≥ 75%.

For `N=C(N)NCCCCCCCCNC(=N)NCCCOc1ccc(C2=NCCCN2)cc1` [compound 192], the pest or weed control at 125 ppm is ≥ 75%.

As to `N=C(N)c1ccc(COCCCn2ccn(CCCOCc3ccc(C(=N)N)cc3)c2=N)cc1` [compound 161], the pest or weed control at 125 ppm was ≥ 75%.

For `N=C(NCCCc1ccc(C(=N)N)cc1)NCCCc1ccc(C(=N)N)cc1` [compound 65, 4-[3-[[N-[3-(4-carbamimidoylphenyl)propyl]carbamimidoyl]amino]propyl]benzamidine], the pest or weed control at 125 ppm is ≥ 75%.

As to `N=C(N)c1ccc(SCCCn2ccn(CCCSc3ccc(C(=N)N)cc3)c2=N)cc1` [compound 181], the pest or weed control at 125 ppm is ≥ 75%.
